# In article PMC4336329 (PLoS ONE, 2015):
# The whole screen tested about 310,000 compounds, of which about 2,200 (0.71%) showed an effect of 50% or more. Effects have a minus sign here. The list shows a part of the results.
# Target: human ether-à-go-go-related gene (hERG) potassium channel (human, UniProt Q12809)
# Experiment: primary screen, population patch clamp on CHO cells stably expressing hERG
# human ether-à-go-go-related gene (hERG) potassium channel, sequence (Q12809 whole entry, looked up): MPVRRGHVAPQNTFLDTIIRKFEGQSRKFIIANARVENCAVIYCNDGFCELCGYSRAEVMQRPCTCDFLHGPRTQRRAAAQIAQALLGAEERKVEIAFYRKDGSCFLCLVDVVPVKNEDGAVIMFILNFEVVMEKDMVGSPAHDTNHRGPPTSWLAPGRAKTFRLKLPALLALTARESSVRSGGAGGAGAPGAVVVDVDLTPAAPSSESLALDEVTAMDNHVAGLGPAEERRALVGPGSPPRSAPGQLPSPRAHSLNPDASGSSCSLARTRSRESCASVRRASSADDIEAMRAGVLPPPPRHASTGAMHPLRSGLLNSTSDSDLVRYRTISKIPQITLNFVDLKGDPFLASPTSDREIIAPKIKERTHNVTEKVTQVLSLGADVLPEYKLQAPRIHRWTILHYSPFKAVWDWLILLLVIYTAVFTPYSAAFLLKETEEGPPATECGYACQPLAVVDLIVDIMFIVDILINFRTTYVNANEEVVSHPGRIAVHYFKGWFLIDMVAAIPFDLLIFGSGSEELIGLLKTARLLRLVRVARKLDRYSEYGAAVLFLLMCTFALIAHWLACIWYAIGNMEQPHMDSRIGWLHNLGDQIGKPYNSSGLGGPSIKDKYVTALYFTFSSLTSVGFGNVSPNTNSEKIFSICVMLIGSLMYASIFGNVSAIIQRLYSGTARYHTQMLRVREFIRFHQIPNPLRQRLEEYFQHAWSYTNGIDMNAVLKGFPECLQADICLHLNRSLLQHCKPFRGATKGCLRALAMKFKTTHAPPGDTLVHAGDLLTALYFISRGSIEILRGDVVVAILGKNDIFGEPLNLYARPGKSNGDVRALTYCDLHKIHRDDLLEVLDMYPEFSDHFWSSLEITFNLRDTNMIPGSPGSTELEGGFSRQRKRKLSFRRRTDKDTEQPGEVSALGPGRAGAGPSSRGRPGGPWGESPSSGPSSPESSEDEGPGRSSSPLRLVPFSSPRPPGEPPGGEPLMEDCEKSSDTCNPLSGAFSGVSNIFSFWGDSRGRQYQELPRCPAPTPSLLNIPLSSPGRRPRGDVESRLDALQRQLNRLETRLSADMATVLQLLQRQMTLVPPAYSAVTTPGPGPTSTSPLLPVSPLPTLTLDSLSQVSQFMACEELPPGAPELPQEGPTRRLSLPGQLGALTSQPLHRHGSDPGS
row,SMILES,"hERG current change (%, negative = inhibition) at 1uM [%]"
1,CCOC(=O)C1(Cc2ccc(OC)cc2)CCN(C(=O)c2cncs2)CC1,6.55
2,Cc1ccc(NS(=O)(=O)c2csc(C(N)=O)c2)cc1C,16.8
3,O=C(CSc1nc(-c2ccccc2)nc2ccc(F)cc12)Nc1ccc(C(=O)O)cc1,11
4,COC(=O)C(C)(C)ONC(=O)Nc1ccccc1Br,13.8
5,C=CCOc1ccc(Br)cc1CNCCCN1CCOCC1.Cl,2.9
6,S=C(NCc1ccccc1)Nc1cccc2cnccc12,5.98
7,Cc1c(C(=O)NC(=S)Nc2cccnc2)cccc1[N+](=O)[O-],17.9
8,Cc1cc(C)nc(-n2nc(C)cc2NC(=O)c2cc3ccccc3oc2=O)n1,-3.26
9,Cc1cccc(NC(=O)/C(=C\c2ccc([N+](=O)[O-])o2)NC(=O)c2ccc(Cl)cc2)c1,5.6
10,Cc1nc2c(C(=O)N3CCC4(CC3)OCCO4)cnn2c(C)c1Cc1cccc(Cl)c1,-6.07
11,Cc1ccc(Nc2cccccc2=O)cc1,13.6
12,Cc1ccc(N/C(N)=N/c2nc(C)cc(N3CCCCC3)n2)c(C)c1,-79
13,CCN1CCN(c2ncnc3c2nnn3Cc2ccccc2)CC1,5.1
14,O=C(CCN1CCN(S(=O)(=O)c2ccc(F)cc2)CC1)Nc1ccccc1F,8.76
15,O=Cc1cn(Cc2ccccc2)nc1-c1cccnc1,9.12
16,COc1ccc(NS(=O)(=O)c2ccc(NC(=S)NC(=O)c3cccc(F)c3)cc2)nn1,7.07
17,Cc1ccccc1-n1c(SC(C)C(N)=O)nnc1-c1cccnc1 (stereo not shown),3.99
18,Cc1ccc(N(C)C(=O)CCS(=O)(=O)c2cc3c(cc2Cl)NC(=O)CO3)cc1,6.3
19,CC(=O)c1sc2nc(-c3ccccc3)cc(C)c2c1N,12.7
20,COc1ccc(Oc2nc(C)nc3c2oc2ccccc23)cc1,12.3
21,CCOc1cc(CNCc2ccccc2)ccc1OCC(=O)NC1CCCCC1,-2.06
22,CC(C)(C)OC(=O)NC1CNNC1=O (stereo not shown),16.9

row,SMILES,"hERG current change (%, negative = inhibition) at 1uM [%]"
1,COc1ccc(S(=O)(=O)C(C#N)c2nc3ccccc3nc2N2CCC(C)CC2)cc1 (stereo not shown),11.2
2,COc1cccc(CN2CCNC(=O)C2CC(=O)NCCc2nc(C)c(C)s2)c1OC (stereo not shown),16.8
3,CCCN(CCC)C(=O)c1cn(CC)c2ccc(S(=O)(=O)N3CCCCC3)cc2c1=O,7.37
4,CCN(c1ccccc1)S(=O)(=O)c1ccc(C(=O)Nc2ccc(C)cn2)cc1,-9.62
5,Cc1ccc(C2=NN(CC(=O)NCCC(C)C)C(=O)CC2)cc1,9.82
6,Cc1nnc(SCC(=O)Nc2ccc(S(=O)(=O)Nc3ccc(Cl)nn3)cc2)s1,13
7,Cc1cc(C(=O)Nc2cc(Br)ccc2O)on1,17.9
8,CN(C)S(=O)(=O)c1ccc(NC(=O)CN2C(=O)NC(Cc3ccccc3)C2=O)cc1 (stereo not shown),8.7
9,COc1cc(/C=C/CN2CCC(CO)(CC3CCCCO3)CC2)ccc1O (stereo not shown),12.8
10,Cc1ccc(NC(=O)c2ccc(CSc3nnc(C)s3)cc2)c(C)c1,9.08
11,CN(C)c1ccc(/C=N/Nc2ccc(-n3ccnc3)nn2)cc1,-0.88
12,c1ccc(C2COC(c3cccs3)=N2)cc1 (stereo not shown),4.09
13,C=C(Br)Cn1c(CC)nc2ccccc21,13.1
14,COC(=O)NC(=S)Nc1ccc(Oc2ccc(Cl)cc2Cl)c(Cl)c1,13.2
15,Cl.N[C@@H](Cc1c[nH]c2ccccc12)c1nnc(SCc2ccc(Cl)cc2)o1,-3.36
16,O=C(Nc1ccccc1C(=O)Nc1ccccc1C(=O)O)c1ccccc1,11.8
17,CCCSc1nc2[nH]ncc2c(=O)[nH]1,10.4
18,Cc1ccc(C(=O)Nc2ccc(C(=O)O)cc2)cc1S(=O)(=O)Nc1cccc([N+](=O)[O-])c1,6.09
19,Cc1ccc(C(=O)NN(CCC(=O)NC(C)(C)C)C2=NS(=O)(=O)c3ccccc32)cc1,4.97
20,Cc1ccc(NC(=S)Nc2cc(C)on2)cc1,7.75
21,NC(=O)c1c(NC(=O)Cn2nc(C(=O)O)c3ccccc3c2=O)sc2c1CCC2,11.8
22,CCOC(=O)c1cnc(-c2ccccc2)nc1Oc1cccc(Cl)c1,7.75

row,SMILES,"hERG current change (%, negative = inhibition) at 1uM [%]"
1,Cc1ccccc1C(=O)Nc1ccccc1C(=O)NCC(C)C,13.7
2,Cc1cc(C)cc(NC(=O)COC(=O)CCCNC(=O)c2ccc(Cl)cc2)c1,2.42
3,O=C(/C=C/c1c(Cl)nc2ccccn12)Nc1ccc(F)cc1,18
4,Cc1nn(-c2ccccc2)c(N)c1C(O)(CSc1nccn1C)C(F)(F)F (stereo not shown),15.5
5,CCCCc1ccc(NC(=O)N2CCNC(=O)C2CC(=O)Nc2ccsc2C(=O)OC)cc1 (stereo not shown),11.8
6,O=S(=O)(Cc1ccccc1Cl)CC(O)COc1ccccc1Cl (stereo not shown),-2.92
7,COc1cc2c(cc1OC)n(CC(=O)NC1CCCCCC1)n1c(C)cc(=O)nc21,-0.313
8,COc1cccc(/C=N/NC(=O)CSc2cccc3cccnc23)c1,8.91
9,CC(=O)c1c(N2CCN(C)CC2)nc(=S)n(Cc2ccccc2)c1C,1.93
10,Cc1ccc(-c2[nH]c3ccccc3c2SCCN)cc1,4.76
11,CCCOc1ccc(-c2nc(C#N)c(N3CCc4ccccc4C3)o2)cc1,-7.81
12,Cc1c(C(=O)N2CCOCC2)oc2ccc(S(=O)(=O)N3CCCCCC3)cc12,7.94
13,COC(=O)c1c(NC(=S)NNS(=O)(=O)c2ccc(OC)cc2OC)sc2c1CCCCCC2,-22
14,COCCN1C(=O)c2ccccc2C(C(=O)NCc2ccco2)C1c1c[nH]c2ccccc12 (stereo not shown),1.92
15,Cc1onc(-c2ccccc2)c1C(=O)Nc1ccccc1NC(=O)c1c(-c2ccccc2)noc1C,1.02
16,CCN1CCCC1CNC(=O)Cn1cc2c(n1)CCC(C)C2 (stereo not shown),8.87
17,CC(=NCc1ccco1)c1c(O)n(-c2ccc(C)cc2)c(=O)[nH]c1=O,15.8
18,CCN(CC)CCn1c(NCc2cccc(OC)c2)nc2ccccc21.Cl,-23.3
19,CC(C(=O)NC1CCCC1)N(C(=O)c1ccc(-c2ccccc2)[nH]1)c1ccccc1F (stereo not shown),3.86
20,CCC(=O)Nc1ccc(C(=O)CSc2nnc(-c3ccccc3F)n2CCc2ccccc2)cc1,11.6
21,Cc1ccc2c(c1)C(c1ccccc1)N(C(=O)CC(C)C)CC(=O)N2 (stereo not shown),-3.03
22,CCC(=O)c1ccc(OCc2ccc(C(=O)OC)o2)c(OC)c1,-0.557

row,SMILES,"hERG current change (%, negative = inhibition) at 1uM [%]"
1,CC1(C)Nc2ccccc2C(=O)N1NS(=O)(=O)c1ccccc1,8.64
2,CC(C)CCN1CCN(CCCc2ccccc2)CC1CCO (stereo not shown),-1.8
3,C=CCSc1nnc2c(n1)[nH]c1c(C)cccc12,0.607
4,CN1C(=O)Cc2cc(S(=O)(=O)NCCc3ccccc3)ccc21,7.96
5,O=C(C1CC1)N1CCc2cc(Br)cc(S(=O)(=O)N3CCCCCC3)c21,6.34
6,CNC(=O)N1CCC(C(=O)c2c(C)c(C)c(C)c(C)c2C)CC1,13
7,O=C(C1CC1)N1N=C(c2ccncc2)CC1(O)C(F)(F)F (stereo not shown),22
8,Cc1nc(C)c(C(=O)C2=C(O)C(=O)N(CCN3CCOCC3)C2c2cccnc2)s1 (stereo not shown),8.65
9,CC(=O)N1N=C(c2ccccc2)CC1c1cn(C)c2ccccc12 (stereo not shown),1.73
10,CCCCC(=O)N=c1sc2cc([N+](=O)[O-])ccc2n1C,8.17
11,CC1CCN(CC(O)COC2CCC(C(C)(C)C)CC2)CC1.Cl (stereo not shown),-1.9
12,CCCc1nc2nc(C)c(NS(=O)(=O)c3ccc(F)cc3)c(=O)n2[nH]1,15.8
13,Cn1c(O)c(C=Nc2ccccc2Sc2ccccc2)c(=O)n(C)c1=O,14
14,CCOCCOC(=O)c1cccc2c1-c1ccccc1C2=O,11.6
15,CSCCC(NC(=O)/C(=C/c1ccc2c(c1)OCO2)NC(=O)c1cccc([N+](=O)[O-])c1)C(=O)O (stereo not shown),1.58
16,CC(C)(C)C(=O)NCCCNc1ccc([N+](=O)[O-])cc1,-9.67
17,CCOc1ccccc1N(C)C(=O)c1cn(C)c(=O)c2ccccc12,14.8
18,O=C(C1=C[C@@H](C2CC2)C[C@@H](OCCCCO)O1)N1CCN(Cc2ccc3c(c2)OCO3)CC1,9.7
19,COc1cc(S(=O)(=O)Nc2ccc(C)cc2)ccc1N=Cc1c(C)c(C#N)c(=O)n(C)c1O,9.2
20,COC(=O)CSc1nc2c(c(-c3ccc(O)cc3)c1C#N)CCCC2,9.09
21,Cc1ccccc1NC(=O)CSc1nnc(NC(=O)c2ccco2)s1,-1.6
22,CC(=O)Nc1ccc(N(C(=O)Cn2nnc3ccccc32)C(C(=O)NC2CCCC2)c2ccc(O)c(O)c2)cc1 (stereo not shown),15
